Screen size: about 150,000 compounds; about 6,500 (4.3%) were called active. This list was built around the results that the source calls inconclusive (neither active nor inactive); the mix of calls is not that of the screen. The call rests on the fitted dose curve; in most records, active means well fitted inhibition curve with a large enough effect (not every such curve was filed as active); inconclusive means small, poorly fitted or top-dose-only effect, or another doubt; inactive means no such curve, though single readings can be large or run the other way. No potency is given beside an inconclusive call; the fits are too rough.
Molecular target: 15-hydroxyprostaglandin dehydrogenase [NAD(+)] (Homo sapiens) (UniProt P15428)
Assay: qHTS Assay for Inhibitors of HPGD (15-Hydroxyprostaglandin Dehydrogenase)
Conditions: purified HPGD, NADH fluorescence kinetic, PGE2 substrate; activity change, negative = inhibition: active compounds read low
In short: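 NADH formation kinetics: reaction with 30 uM PGE2 and 1 mM NAD+ (final), 20 nM enzyme, Tris-HCl pH 8 with Tween 20, after 15 min compound preincubation at room temperature. Fluorescence change, last versus first of five reads.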
On the % scale 0 is the no-effect control and ±100 the full control effect; potency means the concentration at half of the fitted maximal effect; tags describe the fitted curve by direction and shape.

Chain of UniProt P15428 (P15428 whole entry, looked up): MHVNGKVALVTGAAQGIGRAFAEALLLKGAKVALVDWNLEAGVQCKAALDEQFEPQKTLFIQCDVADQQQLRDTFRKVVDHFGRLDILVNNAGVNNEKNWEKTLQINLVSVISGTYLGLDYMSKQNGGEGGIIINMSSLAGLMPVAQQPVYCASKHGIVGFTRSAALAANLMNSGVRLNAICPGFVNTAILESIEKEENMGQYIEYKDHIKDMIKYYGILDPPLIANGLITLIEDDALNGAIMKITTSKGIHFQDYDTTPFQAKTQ

| Compound | Potency | activity change, negative = inhibition |
| --- | --- | --- |
| COCCCNc1ncnc2c1cnn2-c1ccc(C)cc1C | active: 7.94 µM | – |
| CCOC(=O)c1cc(C(=O)OCC)c2ccccn2c1=O | inconclusive [inhibitor, partial curve] | – |
| O=C(c1cnn2c(C(F)F)cc(-c3ccccc3)nc12)N1CCOCC1 | inconclusive [inhibitor, single point] | – |
| C=CC(=O)c1ccc2ccccc2c1 | inconclusive [inhibitor, partial curve] | – |
| CCOC(=O)CCc1c(C)c2c(C)nn(-c3ccccc3)c2[nH]c1=O | inconclusive [inhibitor, full curve, poor fit] | – |
| COc1cccc2c1CCC1=CC(=O)CC[C@@]12C | – | inactive: -7.55% |
| O=C(/C=C/c1cccc(Cl)c1)c1nc2ccccc2[nH]1 | inconclusive [inhibitor, partial curve] | – |
| COc1ccc(C/C(C)=N/NC(=S)Nc2ccc(C(C)C)cc2)cc1 | inconclusive [inhibitor, partial curve] | – |
| CCCc1cc(C(=O)NNC(=S)Nc2cccc(C)c2)cs1 | inconclusive [inhibitor, single point] | – |
| Brc1ccc2[nH]c3c(N4CCc5ccccc5C4)ncnc3c2c1 | inconclusive [inhibitor, partial curve] | – |
| O=C(NCCc1ccccc1)C1CC(c2ccccc2O)=NO1 (stereo not drawn) | – | inactive: -9.37% |
| COc1ccc(-n2ncc3c(N4CCCc5ccccc54)ncnc32)cc1 | inconclusive [inhibitor, single point] | – |
| O=C(NC1CCCCC1)C(Cc1ccccc1)NS(=O)(=O)c1cccs1 (stereo not drawn) | – | inactive: -0.179% |
| O=C1/C(=N/n2cnnc2)c2ccccc2N1Cc1ccccc1 | – | inactive: -19% |
| COc1ccccc1NS(=O)(=O)c1ccc(NC(=O)c2nc3nc(C)cc(C(F)F)n3n2)cc1 | inconclusive [inhibitor, single point] | – |
| Cn1c(Cl)nc2c1c(=O)n(Cc1cccc(Br)c1)c(=O)n2C | inconclusive [inhibitor, partial curve, poor fit] | – |
| CCOc1ccc(/C(O)=C2/C(=O)C(=O)N(c3ncccn3)C2c2ccccc2)cc1 (stereo not drawn) | inconclusive [inhibitor, partial curve] | – |
| O=C(c1ccco1)N(CCC(c1ccccc1)c1ccco1)Cc1ccco1 (stereo not drawn) | active: 20 µM | – |
| CC(C)Nc1nnc(SCC(=O)c2c(N)n(Cc3ccccc3)c(=O)n(C)c2=O)s1 | – | inactive: -18.5% |
| Cc1nn(Cc2ccccc2)c(Cl)c1C(=O)OC1CCOC1=O (stereo not drawn) | active: 15.8 µM | – |
| Cc1ccc(NC(=O)c2cccc(OCc3c(C)noc3C)c2)cc1S(=O)(=O)Nc1ccccc1Cl | inconclusive [inhibitor, single point] | – |
| O=C(CC(c1ccccc1)c1ccccc1)NCC1CCCO1 (stereo not drawn) | active: 7.94 µM | – |
| O=C(O)CCC(=O)N1N=C(c2c(-c3ccccc3)c3cc(Cl)ccc3[nH]c2=O)CC1c1cccs1 (stereo not drawn) | – | inactive: -18.1% |
| O=c1cccc2n1Cc1cc3ccccc3nc1-2 | inconclusive [inhibitor, partial curve] | – |
| O=C(CSc1n[nH]c(-c2ccccc2)n1)c1ccc(O)c(O)c1 | active: 3.55 µM | – |

| Compound | Potency | activity change, negative = inhibition |
| --- | --- | --- |
| COc1cc2c(cc1NC(=O)CN1CCN(S(=O)(=O)c3ccc(C)cc3)CC1)oc1ccccc12 | inconclusive [inhibitor, partial curve] | – |
| Nc1cccc2c1C(=O)N(C(=O)c1ccc(S(=O)(=O)N3CCCCCC3)cc1)C2=O | inconclusive [inhibitor, partial curve] | – |
| COc1ccc2c(CC(=O)N(C)CC3COc4ccccc4O3)coc2c1 (stereo not drawn) | inconclusive [inhibitor, partial curve] | – |
| COc1ccc(NC(=O)CN2C(=O)c3cccc4cccc2c34)cc1OC | inconclusive [inhibitor, partial curve] | – |
| N#CC1=C(N)Oc2n[nH]c(-c3ccncc3)c2C1c1ccsc1 (stereo not drawn) | active: 22.4 µM | – |
| Cc1cc(C)cc(N2C(=O)CC(Sc3nnnn3-c3ccccc3)C2=O)c1 (stereo not drawn) | inconclusive [inhibitor, partial curve, poor fit] | – |
| CCc1nc2ccccc2n(CC)c1=O | inconclusive [inhibitor, partial curve] | – |
| COCCn1cc(C(=O)N2CCCC(C)C2)c2c3ccccc3n(C)c2c1=O (stereo not drawn) | inconclusive [inhibitor, partial curve] | – |
| COc1cc(/C=N\n2nnnc2N)ccc1OCc1ccc(F)cc1 | inconclusive [inhibitor, partial curve] | – |
| CCOC(=O)c1c(C)[nH]c(C(=O)OC)c1CCC(=O)OC | inconclusive [inhibitor, single point] | – |
| N=c1c(C(=O)NCc2ccco2)cc2c(=O)n3ccccc3nc2n1CCc1ccccc1 | inconclusive [inhibitor, partial curve] | – |
| O=C(O)C1CCCCN1S(=O)(=O)c1ccc(Cl)s1 (stereo not drawn) | – | inactive: -10% |
| CCOc1ccc(-c2cc(C(=O)N3CCN(C)CC3)c3ccccc3n2)cc1 | inconclusive [inhibitor, partial curve] | – |
| O=c1[nH]c2cc3c(cc2cc1C(c1nnnn1CC1CCCO1)N1CCCCCC1)OCCO3 (stereo not drawn) | – | inactive: -17% |
| CC1CCN(C(=O)Cn2cc(C#N)c3ccccc32)CC1 | – | inactive: 2.03% |
| Cn1c(COc2ccc3ccccc3c2)nnc1SCC(=O)OC1CCCCC1 | – | inactive: -14.3% |
| O=C/C(=C\Nc1ccccn1)c1nc2ccccc2o1 | inconclusive [inhibitor, partial curve] | – |
| CCCCOc1ccc(C(=O)N2CCCCCC2)cc1 | active: 0.794 µM | – |
| CCN(CCO)c1ccc(-n2c(N)c(C(=O)OC)c3nc4ccccc4nc32)cc1 | inconclusive [inhibitor, partial curve] | – |
| O=C(c1cc2c(s1)-c1ccccc1OC2)N1CCCC1 | inconclusive [inhibitor, partial curve] | – |
| Nc1nc2c(c3c1c(=O)oc1ccccc13)CCCCC2 | inconclusive [inhibitor, single point] | – |
| CN(C)CCC(=O)c1ccc2c(c1)OCO2 | – | inactive: -17% |
| Cc1coc2cc3oc(=O)c4c(c3cc12)CCC4 | – | inactive: -28.9% |
| CC(C)(C)c1csc(NC(=O)CSc2nc3ccccc3c(=O)[nH]2)n1 | inconclusive [inhibitor, partial curve] | – |
| CCOC(=O)c1sc(Nc2ccccc2)nc1C | inconclusive [inhibitor, single point] | – |

| Compound | Potency | activity change, negative = inhibition |
| --- | --- | --- |
| CC(C)C(=O)N1CCC(CN=CC2=C(O)CC(C)(C)CC2=O)CC1 | – | inactive: -6.19% |
| CC(C)(C)C1CCc2c(sc(NC(=O)C3CC=CCC3C(=O)O)c2C#N)C1 (stereo not drawn) | active: 15.8 µM | – |
| CCCN1C(=O)c2ccccc2NC1c1ccc(OC)cc1OC (stereo not drawn) | inconclusive [inhibitor, partial curve] | – |
| Cc1ccc(NS(=O)(=O)c2cc(C(=O)N3CCOCC3)ccc2C)cc1 | – | inactive: -6.57% |
| COc1ccc2c(c1OC)C(=O)N(c1ccc(C)c(C)c1)C2=O | – | inactive: -17.8% |
| O=C(c1cccc(-c2ccc(O)cc2)c1)N1CCOCC1 | active: 15.8 µM | – |
| C[N+](C)(C)CCN[N@@+]1(C)CCCc2ccccc21 | inconclusive [inhibitor, single point] | – |
| OCCN1CCN(C(=S)c2ccc(Cl)cc2)CC1 | active: 15.8 µM | – |
| CCCc1nc2ccccc2c(=O)n1/N=C/c1c(C)[nH]n(-c2ccc(C)cc2)c1=O | – | inactive: -14.4% |
| COc1ccc(NS(=O)(=O)c2cc(NC(=O)c3ccco3)ccc2N2CCCC2)cc1 | – | inactive: -7.22% |
| CCC[C@H](Sc1nc(N)nc2nc[nH]c12)C(=O)O | – | inactive: -12.7% |
| COc1cc(-c2ccc(N=Nc3ccc4c(S(=O)(=O)O)cc(S(=O)(=O)O)c(N)c4c3O)c(OC)c2)ccc1N=Nc1ccc2c(S(=O)(=O)O)cc(S(=O)(=O)O)c(N)c2c1O | active: 14.1 µM | – |
| Cc1ccc(-c2nc(-c3cccnc3)sc2CC(=O)Nc2ccc(C)c(Cl)c2)cc1 | inconclusive [inhibitor, partial curve] | – |
| COc1ccccc1/C=C/C=N/N1CCN(c2ccccn2)CC1 | – | inactive: -4.43% |
| CN(C)c1cc2c(Nc3ccc4c(cnn4Cc4ccccc4)c3)ncnc2cn1 | active: 12.6 µM | – |
| O=C(CSc1nc2ccccc2s1)N1N=C(c2cccs2)CC1c1ccc(F)cc1 (stereo not drawn) | inconclusive [inhibitor, partial curve] | – |
| N#CC1=C2SCN(c3ccccc3)CN2C(=O)CC1c1cccs1 (stereo not drawn) | active: 7.08 µM | – |
| CN(C)c1ccc(C(=O)c2ccc(O)cc2O)cc1 | inconclusive [inhibitor, single point] | – |
| CCCn1c(-c2ccc(F)cc2)nc2c(N3CCN(CCC(=O)OCC)CC3)nc(C)nc21 | – | inactive: -14% |
| CC(=O)c1ccc(-n2nnnc2SCC(=O)Nc2sc(C)c(C)c2C#N)cc1 | – | inactive: -9.28% |
| CCCn1nc2cc(C(=O)NCc3ccccc3)ccc2c1OCC | inconclusive [inhibitor, partial curve] | – |
| Cc1ccc(C)c(OCCn2cc(/C=C(/C#N)C(=O)NCC3CCCO3)c3ccccc32)c1 (stereo not drawn) | inconclusive [inhibitor, partial curve] | – |
| CCC(=O)N1c2ccc(S(=O)(=O)N(CCO)Cc3ccccc3)cc2CC1C (stereo not drawn) | inconclusive [inhibitor, partial curve] | – |

Reference: PubChem BioAssay AID894 (National Center for Advancing Translational Sciences (NCATS), 2007)
